# PubChem BioAssay (NCATS)
# “And” between values parts separate entries of the source, which are not always exact repeats. Equal values may be shown once. This list was built around the results that the source calls inconclusive (neither active nor inactive); the mix of calls is not that of the screen. Where the call is inconclusive, the potency comes from a doubtful curve fit. The source made the active and inactive calls. The call rests on the fitted dose curve; in most records, active means well fitted cell-killing curve with a large enough effect; inconclusive means small, poorly fitted or top-dose-only effect, or effect the other way; inactive means no such curve, though single readings can be large or run the other way.
# Key:
# [1] = Viability qHTS for spleen associated tyrosine kinase inhibitor (SYKi) naive MV4-11 cells (AID 1963823); conditions: MV4-11 AML viability, CellTiter-Glo luminescence, 72 h; viability (% of control): at 45 µM (top of the series); further: nearly all actives have a fitted effect of over 40% in size
# Method in brief: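 Viability of MV4-11 AML cells lacking prior SYK inhibitor exposure is scored by CellTiter-Glo luminescence following 72 hr compound incubation at 37 C, 5% CO2, seeded at 500 cells per well.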
# [2] = Viability qHTS for spleen associated tyrosine kinase inhibitor (SYKi) drug resistant MV4-11 cells (AID 1963824); conditions: SYKi-resistant MV4-11 viability, CellTiter-Glo, 72 h; series mostly up to 45 µM; further: nearly all actives have a fitted effect of over 35% in size
# Method in brief: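 SYK-inhibitor-resistant MV4-11 AML cells were seeded at 500 per well onto compound and cultured 72 hours (37 °C, 5% CO2). CellTiter-Glo was then added, and after 10 min at room temperature, luminescence gave viability.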
# Potency means the concentration at half of the fitted maximal effect; tags describe the fitted curve by direction and shape.
smiles,measurement,setting,value
CSCC1OC(n2cnc3c(N)ncnc32)C(O)C1O (configuration not stated),Potency,[1],"inconclusive: 9.2 µM [cytotoxic, partial curve, poor fit]"
CC1(C)CCC(C)(C)c2cc(C3(c4ccc(C(=O)O)cc4)OCCO3)ccc21,Potency,[1],"inconclusive: 0.0461 µM [cytotoxic, full curve, poor fit]"
same,Potency,[2],"inconclusive: 1.84 µM [cytotoxic, partial curve]"
COC1CC(O[C@H]2CC[C@@]3(C)C(CCC4C3[C@H](OC(C)=O)[C@@H](OC(=O)/C=C/c3ccccc3)[C@]3(C)C(C(C)=O)CC[C@]43O)C2)OC(C)C1OC1CC(OC)C(OC2CC(OC)C(OC3OC(C)C(OC4OC(CO)C(O)C(O)C4O)C(OC)C3O)C(C)O2)C(C)O1 (some centres not stated),viability (% of control),[1],inactive: 48.3% [at 9.25 µM]
same,"viability, % of control",[2],inactive: 45.7% [at 9.25 µM]
C[C@]12CCC[C@](C)(C(=O)O)C1CCC13CC(CO)C(CCC12)C3 (some centres not stated),Potency,[1],"inconclusive: 11.4 µM [cytotoxic, single point]"
same,Potency,[2],"inconclusive: 12.8 µM [cytotoxic, partial curve, poor fit]"
CO/N=C(/C(=O)N[C@@H]1C(=O)N2C(C(=O)O)=C(CSC(=O)c3ccco3)CS[C@H]12)c1csc(N)n1,Potency,[1],inactive
same,Potency,[2],inactive
CNS(=O)(=O)CC1CCC(N(C)c2ncnc3[nH]ccc23)CC1 (configuration not stated),Potency,[1],"inconclusive: 8.2 µM [cytotoxic, partial curve]"
same,Potency,[2],"inconclusive: 10.3 µM [cytotoxic, partial curve]"
CC1(C)CCC2(C(=O)OC3OC(CO)C(O)C(O)C3O)CCC3(C)C(=CCC4C5(C)CCC(OC6OC(C(=O)O)C(OC7OC(CO)C(O)C(O)C7O)C(OC7OC(CO)C(O)C(O)C7O)C6O)C(C)(C)C5CCC43C)C2C1 (configuration not stated),viability (% of control),[1],inactive: 77.9% [at 9.25 µM]
same,"viability, % of control",[2],inactive: 109% [at 9.25 µM]
O=[N+]([O-])c1nccn1CO[C@@H](CO)[C@H](O)CO,Potency,[1],"inconclusive: 0.0237 µM [cytotoxic, full curve]"
same,Potency,[2],"inconclusive: 0.0335 µM [cytotoxic, full curve]"
C=C1C[C@H]2C=Nc3cc(OCCCOc4cc5c(cc4OC)C(=O)N4CC(=C)C[C@H]4C=N5)c(OC)cc3C(=O)N2C1,Potency,[1],inactive
same,Potency,[2],inactive
C=CCN1C[C@H](C(=O)N(CCCN(C)C)C(=O)NCC)C[C@@H]2c3cccc4[nH]cc(c34)C[C@H]21,Potency,[1],"inconclusive: 2.66 µM [cytotoxic, partial curve]"
same,Potency,[2],"inconclusive: 7.5 µM [cytotoxic, partial curve]"
COc1ccc(NC(=O)c2ccc(C(=N)N(C)C)cc2)c(C(=O)Nc2ccc(Cl)cn2)c1,Potency,[1],"inconclusive: 4.11 µM [cytotoxic, partial curve, poor fit]"
same,Potency,[2],"inconclusive: 29.1 µM [cytotoxic, single point]"
CC1=C2C[C@@]3(C)C(CCC[C@@H]3C)C(O)C2(O)OC1=O (some centres not stated),Potency,[1],"inconclusive: 16.4 µM [cytotoxic, partial curve]"
same,Potency,[2],"inconclusive: 20.6 µM [cytotoxic, partial curve]"
O=c1cc(N2CCNCC2)oc2c(-c3ccccc3)cccc12,Potency,[1],"inconclusive: 8.2 µM [cytotoxic, partial curve]"
same,Potency,[2],"inconclusive: 11.6 µM [cytotoxic, partial curve]"
COc1ccc(C2(O)c3ccccc3NC(=O)C2O)cc1 (configuration not stated),Potency,[1],inactive
same,Potency,[2],"inconclusive: 10.3 µM [cytotoxic, partial curve, poor fit]"
CC1=C2C(=O)O[C@@H](c3ccoc3)[C@]2(C)CCC1,Potency,[1],"inconclusive: 16.4 µM [cytotoxic, partial curve] and inactive"
same,Potency,[2],"inconclusive: 13 µM [cytotoxic, partial curve] and inconclusive: 14.6 µM [cytotoxic, single point]"
COc1cc2c(cc1O)C1(Cc3ccc4c(c3C1O)OCO4)[N+](C)([O-])CC2 (configuration not stated),Potency,[1],"inconclusive: 7.18 µM [cytotoxic, partial curve]"
same,Potency,[2],"inconclusive: 1.01 µM [cytotoxic, partial curve, poor fit]"
N#C[C@@H]1C[C@H](F)CN1C(=O)CNC1[C@H]2CN(C(=O)c3ccc(F)cc3)C[C@@H]12 (some centres not stated),Potency,[1],inactive
same,Potency,[2],inactive
CC(=O)OC1C(O)/C(C)=C\C2C(OC(=O)c3ccccc3)C(C)CC2(OC(C)=O)C(OC(C)=O)C(C)/C=C/C(C)(C)C1OC(C)=O (configuration not stated),Potency,[1],inactive
same,Potency,[2],"inconclusive: 6.11 µM [cytotoxic, partial curve]"
COC(=O)C1=CO[C@@H](O[C@@H]2O[C@H](CO)[C@@H](O)[C@H](O)[C@H]2O)[C@@H]2[C@@H](C)[C@@H](O)C[C@H]12,Potency,[1],inactive
same,Potency,[2],inactive
COC(=O)CC(O)CC(O)/C=C/c1c(C)ccc2c1C(OC(C)=O)CC(C)C2 (configuration not stated),Potency,[1],"inconclusive: 5.7 µM [cytotoxic, partial curve, poor fit]"
same,Potency,[2],active: 1.8 µM
O=C(N[C@@H]1CC[C@@H](c2cccc(F)c2F)CN(CC(F)(F)F)C1=O)N1CCC(n2c(=O)[nH]c3ncccc32)CC1,Potency,[1],"inconclusive: 16.4 µM [cytotoxic, partial curve]"
same,Potency,[2],"inconclusive: 18.4 µM [cytotoxic, partial curve]"
CCOc1ccc(-n2c(C(C)N(Cc3cccnc3)C(=O)Cc3ccc(F)c(C(F)(F)F)c3)nc3ncccc3c2=O)cc1 (configuration not stated),Potency,[1],"inconclusive: 16.4 µM [cytotoxic, partial curve]"
same,Potency,[2],active: 16.4 µM
CC(C)Oc1ccc(-c2nc(-c3cccc4c3CCC4NCCC(=O)O)no2)cc1C#N (configuration not stated),Potency,[1],inactive
same,Potency,[2],inactive
CC(C)CN(CC(=O)N(CCCN1CCCC1=O)CC(N)=O)C(=O)CNCCc1ccccc1F,Potency,[1],inactive
same,Potency,[2],inactive
COc1cc(C(O)C2COC(c3ccc(OC4OC(CO)C(O)C(O)C4O)c(OC)c3)C2CO)ccc1O (configuration not stated),Potency,[1],active: 4.47 µM
same,Potency,[2],inactive
C=C(C)[C@@H]1CC[C@]2(C(=O)O)CC[C@]3(C(=O)O)[C@H](CCC4[C@@]5(C)CCC(=O)C(C)(C)C5CC[C@]43C)C12 (some centres not stated),Potency,[1],"inconclusive: 10 µM [cytotoxic, partial curve]"
same,Potency,[2],"inconclusive: 11.2 µM [cytotoxic, single point]"
COc1cc(OC)c2ccc(=O)oc2c1,Potency,[1],"inconclusive: 28.2 µM [cytotoxic, single point]"
same,Potency,[2],"inconclusive: 0.158 µM [cytotoxic, partial curve, poor fit]"
CC(C)Cn1cnc2c1c(=O)n(C)c(=O)n2C,Potency,[1],inactive
same,Potency,[2],inactive
NC(N)=NC(=O)Cc1c(Cl)cccc1Cl,Potency,[1],"inconclusive: 16.8 µM [cytotoxic, single point]"
same,Potency,[2],"inconclusive: 18.8 µM [cytotoxic, partial curve, poor fit]"
CC1=C(C(=O)OCc2ccccc2)C(c2ccc(-c3ccccc3)cc2)NC(=O)N1CCCCCC(=O)O (configuration not stated),Potency,[1],"inconclusive: 23.1 µM [cytotoxic, single point]"
same,Potency,[2],"inconclusive: 23.1 µM [cytotoxic, partial curve]"
CC1(C)CCCC2(C)c3c4c(c(=O)oc(=O)c3=CCC12)=CCC1C(C)(C)CCCC41C (configuration not stated),Potency,[1],inactive
same,Potency,[2],inactive
O=C(N[C@H](Cc1ccccc1)C(=O)O)c1sc2cc(F)ccc2c1Cl,Potency,[1],"inconclusive: 29.1 µM [cytotoxic, single point]"
same,Potency,[2],"inconclusive: 14.6 µM [cytotoxic, single point]"
Cc1ccc(S(=O)(=O)Nc2cc(-c3ccc(C#N)s3)ccc2C)cc1,Potency,[1],active: 0.0295 µM
same,Potency,[2],active: 0.0332 µM
O=C1NC(=O)/C(=C/c2ccc3nccc(-c4ccncc4)c3c2)S1,Potency,[1],active: 461 nM and active: 372 nM
same,Potency,[2],active: 820 nM and active: 525 nM
C/C=C/C=C/C=C/C(=O)O[C@@H]1C=C(CO)C(O)(C(=O)OC)[C@@]2(C)CCCC(C)(C)C12 (some centres not stated),Potency,[1],"inconclusive: 7.96 µM [cytotoxic, single point]"
same,Potency,[2],active: 10 µM
CC(=O)OC1C(OC(=O)c2ccccc2)C2C(=C(C)CCC2(C)C)C23CCC(C)(C2)C(=O)CC13 (configuration not stated),Potency,[1],"inconclusive: 3.17 µM [cytotoxic, partial curve, poor fit]"
same,Potency,[2],"inconclusive: 3.55 µM [cytotoxic, partial curve, poor fit]"
CCN(CC)CCOc1ccccc1C(=O)CCc1ccccc1,Potency,[1],"inconclusive: 33.5 µM [cytotoxic, single point]"
same,Potency,[2],"inconclusive: 29.9 µM [cytotoxic, single point]"
C[C@@H](N[C@H]1CCCC[C@@H]1NC(=O)c1ccc(Cl)cc1)c1cccc2ccccc12,Potency,[1],"inconclusive: 11.6 µM [cytotoxic, partial curve]"
same,Potency,[2],"inconclusive: 10.3 µM [cytotoxic, partial curve]"
Cc1cc(OCc2nnc(SC3CCCC3)n2-c2cccnc2)ccc1-c1ccc(S(C)(=O)=O)cc1,Potency,[1],active: 0.184 µM
same,Potency,[2],active: 0.116 µM
COc1ccc2nc3ccc(OC)cc3c(SCCCN)c2c1,Potency,[1],"inconclusive: 2.31 µM [cytotoxic, full curve]"
same,Potency,[2],active: 2.31 µM
C/C1=C\CC[C@]2(C)O[C@H]2C(=O)c2c(C)coc2C1,Potency,[1],inactive
same,Potency,[2],"inconclusive: 25.9 µM [cytotoxic, single point]"
OCC(O)CS (configuration not stated),Potency,[1],"inconclusive: 0.0531 µM [rising, full curve]"
same,Potency,[2],"inconclusive: 0.0299 µM [rising, full curve]"
N#Cc1cc(F)cc(-c2nc(-c3ccccn3)no2)c1,Potency,[1],inactive
same,Potency,[2],inactive
CC1(C)SC2C(NC(=O)[C@H](C(=O)O)c3ccsc3)C(=O)N2C1C(=O)O (some centres not stated),Potency,[1],inactive
same,Potency,[2],inactive
